In all, about 310,000 compounds went through this assay and about 2,200 (0.71%) showed an effect of 50% or more. Effects have a minus sign here. Some of the results follow.

human ether-à-go-go-related gene (hERG) potassium channel, sequence (Q12809 whole entry, looked up): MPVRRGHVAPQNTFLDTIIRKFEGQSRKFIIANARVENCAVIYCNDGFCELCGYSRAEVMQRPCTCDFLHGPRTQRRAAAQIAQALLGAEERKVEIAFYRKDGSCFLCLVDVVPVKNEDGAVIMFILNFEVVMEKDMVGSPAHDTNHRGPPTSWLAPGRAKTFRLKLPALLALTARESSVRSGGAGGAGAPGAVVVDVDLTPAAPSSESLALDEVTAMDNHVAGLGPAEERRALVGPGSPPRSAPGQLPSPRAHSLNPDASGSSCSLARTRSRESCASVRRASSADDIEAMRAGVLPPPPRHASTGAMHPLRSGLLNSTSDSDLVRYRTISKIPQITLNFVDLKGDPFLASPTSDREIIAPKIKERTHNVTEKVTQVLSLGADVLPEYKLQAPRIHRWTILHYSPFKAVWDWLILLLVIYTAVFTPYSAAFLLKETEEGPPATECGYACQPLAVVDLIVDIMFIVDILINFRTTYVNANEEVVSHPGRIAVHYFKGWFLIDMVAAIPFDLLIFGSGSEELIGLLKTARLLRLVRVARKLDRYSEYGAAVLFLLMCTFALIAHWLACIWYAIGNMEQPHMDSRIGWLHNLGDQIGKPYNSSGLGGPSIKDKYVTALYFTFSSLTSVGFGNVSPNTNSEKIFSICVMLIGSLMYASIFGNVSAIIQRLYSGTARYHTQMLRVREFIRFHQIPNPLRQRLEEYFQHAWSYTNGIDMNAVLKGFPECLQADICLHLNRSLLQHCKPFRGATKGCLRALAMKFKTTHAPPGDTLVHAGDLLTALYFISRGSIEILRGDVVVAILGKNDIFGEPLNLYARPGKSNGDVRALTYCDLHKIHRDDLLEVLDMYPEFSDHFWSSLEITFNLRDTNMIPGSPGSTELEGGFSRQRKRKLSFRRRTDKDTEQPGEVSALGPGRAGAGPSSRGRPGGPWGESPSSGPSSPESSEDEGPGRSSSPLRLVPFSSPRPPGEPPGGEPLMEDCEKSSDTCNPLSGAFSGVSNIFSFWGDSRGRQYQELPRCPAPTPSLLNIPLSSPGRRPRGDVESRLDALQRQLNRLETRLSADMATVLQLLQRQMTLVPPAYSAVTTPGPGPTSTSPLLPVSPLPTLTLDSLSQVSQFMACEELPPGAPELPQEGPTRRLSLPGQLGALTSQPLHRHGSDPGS

The assay has as its target human ether-à-go-go-related gene (hERG) potassium channel (human, UniProt Q12809). Description: primary screen, population patch clamp on CHO cells stably expressing hERG.
In the case of `O=C(N/N=C/c1ccc(N2CCOCC2)s1)c1ccccc1Br`, the “hERG current change (%, negative = inhibition) at 1uM” value was determined as 15.9%.

For `COc1ccc(NC(=O)C(=O)N/N=C/c2cc(C)n(-c3cccc(Cl)c3Cl)c2C)c(OC)c1`, the “hERG current change (%, negative = inhibition) at 1uM” value worked out at 4.55%.

Regarding `O=c1oc2ccccc2c2nccnc12`, the “hERG current change (%, negative = inhibition) at 1uM” value stood at 11.6%.

Regarding `COc1ccc(Nc2nc3ccccc3n3cnnc23)cc1Cl`, the “hERG current change (%, negative = inhibition) at 1uM” value came to 14.4%.

`COc1ccc(OC)c(N2C(=O)C(Cl)=C(N3CCCCC3)C2=O)c1`: the “hERG current change (%, negative = inhibition) at 1uM” value was -1.86%.

Consider `COc1ccc(OC)c(C(=O)c2ccc(C(=O)Nc3ccccc3)cc2)c1`, for which the “hERG current change (%, negative = inhibition) at 1uM” value is reported as 10.3%.

Consider `O=C(NCC1CCCO1)C(c1cccs1)N(Cc1cccs1)C(=O)c1ccc(-c2ccccc2)[nH]1` (centres unmarked), for which the “hERG current change (%, negative = inhibition) at 1uM” value was determined as 16.7%.

As for `O=S(=O)(c1ccccc1)C1CON(Cc2ccccc2)C1c1ccccc1` (centres unmarked), the “hERG current change (%, negative = inhibition) at 1uM” value worked out at 9.91%.

On to `COc1cc(/C=N/NC(N)=O)ccc1OCC(=O)N1C(C)CCCC1C` (centres unmarked), for which the “hERG current change (%, negative = inhibition) at 1uM” value amounted to 8.85%.

For the compound `O=C(CCCCCn1c(=S)[nH]c2ccccc2c1=O)N1CCC2(CC1)OCCO2`, the “hERG current change (%, negative = inhibition) at 1uM” value is given as 4.05%.

Turning to `COc1ccc(C(C)=O)cc1CSc1ncccn1`, the “hERG current change (%, negative = inhibition) at 1uM” value is given as 7.7%.

Consider `CCOC(=O)c1cc2c(ccn2C)n1Cc1ccccc1C`, for which the “hERG current change (%, negative = inhibition) at 1uM” value worked out at 14.8%.

As for `CC(C)C(=O)NN(C(=O)C(C)C)c1nc2ccccc2s1`, the “hERG current change (%, negative = inhibition) at 1uM” value is 11.4%.

Turning to `CCOc1cc(CNCCc2ccccc2F)ccc1OC.O=C(O)C(=O)O`, the “hERG current change (%, negative = inhibition) at 1uM” value is -13.9%.

As for `O=S(=O)(Cc1ccccc1)c1cnc2ccccc2n1`, the “hERG current change (%, negative = inhibition) at 1uM” value was 11%.

Turning to `O=C(NCc1cccs1)c1ccccc1C(=O)NCc1cccs1`, the “hERG current change (%, negative = inhibition) at 1uM” value is recorded as -14.4%.

Regarding `CCCCN(C(=O)c1ccc2c(c1)OCCO2)c1c(N)n(CCCC)c(=O)[nH]c1=O`, the “hERG current change (%, negative = inhibition) at 1uM” value is given as -7.57%.

Take `COc1ccc(CNC(=O)CN(C)S(=O)(=O)c2ccc3c(c2)OCCO3)cc1OC`: the “hERG current change (%, negative = inhibition) at 1uM” value came out at 15.2%.

For the compound `Cc1[nH]c2ccccc2c1/C=N/NC(=O)CNC(=O)c1ccc2c(c1)OCO2`, the “hERG current change (%, negative = inhibition) at 1uM” value was 5.11%.

In the case of `CSc1ccc(CNC(=O)Cc2ccc(NC(=O)C3=C(C)OCCS3)cc2)cc1`, the “hERG current change (%, negative = inhibition) at 1uM” value was found to be 39.5%.

As for `O=C(NCCCO)/C(=C\c1ccco1)NC(=O)c1ccco1`, the “hERG current change (%, negative = inhibition) at 1uM” value is 4.16%.

In the case of `COc1ccccc1NC(=O)c1c([N+](=O)[O-])cnn1C`, the “hERG current change (%, negative = inhibition) at 1uM” value came out at 13.4%.

Turning to `COc1ccc(-n2c(Cc3ccccc3)nc3ccccc3c2=O)cc1`, the “hERG current change (%, negative = inhibition) at 1uM” value is recorded as -33.8%.

Turning to `CN=C(NC1CCCCC1)c1ccc(Cl)cc1.Cl`, the “hERG current change (%, negative = inhibition) at 1uM” value stood at 6.89%.

In the case of `COc1ccc(NC(=O)COc2ccc(C(=O)NC3CCCc4ccccc43)cc2OC)cc1` (centres unmarked), the “hERG current change (%, negative = inhibition) at 1uM” value is given as 1.58%.

`CC(=O)Cc1nsc(NC(=O)c2ccco2)n1`: the “hERG current change (%, negative = inhibition) at 1uM” value was found to be 10.9%.

For `Cc1nn(C(=O)c2ccc([N+](=O)[O-])cc2)c(C)c1Br`, the “hERG current change (%, negative = inhibition) at 1uM” value is listed as 16.2%.

In the case of `c1ccc2c(c1)CC1(CCCCC1)n1nnnc1-2`, the “hERG current change (%, negative = inhibition) at 1uM” value was determined as 10.1%.

In the case of `CC(=O)N1CCN(c2ccc(NCc3ccc(C)cc3)cc2)CC1`, the “hERG current change (%, negative = inhibition) at 1uM” value came out at 14.5%.

For the compound `COc1ccc([N+](=O)[O-])cc1N(CC(=O)NC1CCCC1)S(C)(=O)=O`, the “hERG current change (%, negative = inhibition) at 1uM” value came to 19.6%.

As for `C=CCn1c(C#N)c(N)sc1=N`, the “hERG current change (%, negative = inhibition) at 1uM” value was 2.53%.

Take `Cc1ccc(C)c(NC(=O)C(=O)NCCc2c[nH]c3ccccc23)c1`: the “hERG current change (%, negative = inhibition) at 1uM” value turned out to be 13%.

Turning to `COc1ccc2[nH]c(C(=O)O)c(CCNC(=O)/C=C/c3ccc(O)c(OC)c3)c2c1`, the “hERG current change (%, negative = inhibition) at 1uM” value amounted to 13.1%.

Take `O=C(N/N=C/c1cccc2ccccc12)c1cccc(F)c1`: the “hERG current change (%, negative = inhibition) at 1uM” value was determined as 12.3%.

Turning to `Cc1ccc(C(=O)N2CC(C)OC(C)C2)c(Cl)c1` (centres unmarked), the “hERG current change (%, negative = inhibition) at 1uM” value turned out to be 4.1%.

`Cc1noc(C)c1CS(=O)(=O)c1ccc(Br)cc1`: the “hERG current change (%, negative = inhibition) at 1uM” value amounted to 13.7%.

As to `CCC(=O)Nc1nc2nc(C)cc(=O)n2[nH]1`, the “hERG current change (%, negative = inhibition) at 1uM” value is 7.94%.

Turning to `C=CCC(CC=C)(NC(=O)c1cccc(C)c1)c1ccccc1`, the “hERG current change (%, negative = inhibition) at 1uM” value is recorded as 8.19%.

Turning to `O=C(O)c1cccc(NC(=O)c2ccccc2NC(=O)c2ccco2)c1`, the “hERG current change (%, negative = inhibition) at 1uM” value is given as 2.85%.

With `Cc1onc(-c2ccccc2)c1C(=O)NCc1ccccc1F`, the “hERG current change (%, negative = inhibition) at 1uM” value was found to be 14.3%.

On to `COC(C)(C)[C@H](O)COc1c2ccoc2cc2oc(=O)ccc12`, for which the “hERG current change (%, negative = inhibition) at 1uM” value is listed as 14.3%.

On to `O=C(C1=C[C@H](c2ccc(C(F)(F)F)cc2)C[C@H](OCCCCO)O1)N1CCOCC1`, for which the “hERG current change (%, negative = inhibition) at 1uM” value is -1.21%.

In the case of `CCc1cc2ccc(C)cc2nc1SCC(=O)c1ccc(NC(C)=O)cc1`, the “hERG current change (%, negative = inhibition) at 1uM” value is listed as 1.32%.

On to `Cc1occc1-c1nnc(SCC(=O)N2CCc3ccccc32)o1`, for which the “hERG current change (%, negative = inhibition) at 1uM” value worked out at 9.98%.

Regarding `COc1ccccc1NCC(=O)N/N=C/c1cccnc1`, the “hERG current change (%, negative = inhibition) at 1uM” value is 4.49%.

In the case of `CNCCc1ccc(O)c(O)c1.Cl`, the “hERG current change (%, negative = inhibition) at 1uM” value stood at 20.6%.

`CC(=O)c1ccc2c(c1)Nc1ccccc1S2`: the “hERG current change (%, negative = inhibition) at 1uM” value came out at 0.943%.

Take `CCOC(=O)CNC(=O)c1sc(NC(=O)c2ccccc2F)nc1C`: the “hERG current change (%, negative = inhibition) at 1uM” value was determined as 5.43%.

Regarding `O=C(C1CCCN(S(=O)(=O)c2ccc(Br)s2)C1)N1CCCCCC1` (centres unmarked), the “hERG current change (%, negative = inhibition) at 1uM” value is reported as 2.77%.

Regarding `Cc1cc(C)c(NC(=O)CC(=O)c2ccccc2)c(Cl)c1`, the “hERG current change (%, negative = inhibition) at 1uM” value was 10%.

Consider `O=C(Nc1ccc(N2CCOCC2)cc1)c1cc2ccccc2o1`, for which the “hERG current change (%, negative = inhibition) at 1uM” value turned out to be 13.7%.

Take `COc1ccc(S(=O)(=O)N2CCCCC2)cc1NC(=O)C1CC1`: the “hERG current change (%, negative = inhibition) at 1uM” value was determined as 1.01%.

Consider `Nc1cc(S(=O)(=O)Nc2ccccc2Cl)ccc1N1CCCC1`, for which the “hERG current change (%, negative = inhibition) at 1uM” value is listed as 5.41%.

For `Cc1ccc(N(C(=O)c2csnn2)C(C(=O)NC2CCCCC2)c2ccco2)cc1` (centres unmarked), the “hERG current change (%, negative = inhibition) at 1uM” value is recorded as 11.7%.

Consider `Cc1ccc(C)c(N(C(=O)c2csnn2)C(C(=O)NC2CCCC2)c2cccnc2)c1` (centres unmarked), for which the “hERG current change (%, negative = inhibition) at 1uM” value is on record as 12.1%.

Consider `Oc1ccccc1-c1n[nH]c(=S)n1Cc1ccccc1`, for which the “hERG current change (%, negative = inhibition) at 1uM” value is given as 18.9%.

As for `CCOc1ccc(/C(O)=C2/C(=O)C(=O)N(CCN(CC)CC)C2c2ccco2)cc1` (centres unmarked), the “hERG current change (%, negative = inhibition) at 1uM” value was found to be 1.22%.

`Cc1ccccc1Cn1cnc2c([N+](=O)[O-])c(C)c(C)cc21`: the “hERG current change (%, negative = inhibition) at 1uM” value came to 0.853%.

For the compound `COc1ccc(C(C#N)=C2C=CC(=NO)C=C2)cc1`, the “hERG current change (%, negative = inhibition) at 1uM” value is recorded as 5.59%.

These data come from article PMC4336329 (PLoS ONE, 2015).
